According to PMC2605266 (2008):

Target: T1, Munc18c, N-terminal His6-fusion protein (Mus musculus (Mouse), UniProt Q60770)
T1 chain: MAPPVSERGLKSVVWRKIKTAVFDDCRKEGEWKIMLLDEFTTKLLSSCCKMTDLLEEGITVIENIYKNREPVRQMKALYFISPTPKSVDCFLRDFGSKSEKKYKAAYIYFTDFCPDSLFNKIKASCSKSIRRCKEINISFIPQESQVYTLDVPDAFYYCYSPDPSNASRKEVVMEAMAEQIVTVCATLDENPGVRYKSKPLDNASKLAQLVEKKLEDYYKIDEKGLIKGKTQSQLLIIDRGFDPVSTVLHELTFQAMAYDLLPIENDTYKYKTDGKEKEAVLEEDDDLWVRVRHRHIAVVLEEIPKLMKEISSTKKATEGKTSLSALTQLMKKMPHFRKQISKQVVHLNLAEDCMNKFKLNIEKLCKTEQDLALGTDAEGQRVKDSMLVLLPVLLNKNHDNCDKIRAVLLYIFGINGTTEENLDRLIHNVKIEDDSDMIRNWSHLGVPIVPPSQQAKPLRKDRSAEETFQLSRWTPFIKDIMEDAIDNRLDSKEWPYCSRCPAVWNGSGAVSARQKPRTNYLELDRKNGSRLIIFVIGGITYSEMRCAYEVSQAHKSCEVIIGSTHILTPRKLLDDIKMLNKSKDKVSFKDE
Test: Ni-NTA pull-down, immunoblot; without syntaxin 4; excess Sx4 cytosolic domain (16.7 uM) displaces VAMP2 from Munc18c, Sx16 does not

binding result: binds
B1: VAMP2 cytosolic domain ([…]), untagged (protein)
chain: not shown
